The text below walks through data of the antibiotic and cytotoxicity screens of Wong et al. (2023).

The subject of one test is HSkMC. In words: cytotoxicity call (relative viability < 0.9). Particulars: 10 µM.
In the next test the test system is HepG2. Description: cytotoxicity call (relative viability < 0.9). Particulars: 10 µM.
In the next test the test system is S. aureus RN4220. Description: growth inhibition call (relative growth <= 0.2). Particulars: 50 µM.

Molecules are shown by their SMILES. The list shows a part of the results.

As for `COc1ccc(C#Cc2ccc3c(c2)O[C@H](CN(C)C(=O)CN2CCOCC2)[C@@H](C)CN([C@@H](C)CO)S3(=O)=O)cc1`, the cytotoxicity call in the test on HSkMC and with HepG2 was “inactive” each time. In addition, the growth inhibition call in the test with S. aureus RN4220 was “inactive”.
Turning to `Cn1ccnc1C(=O)NCc1cnc2n1CCNCC2`, the cytotoxicity call in the test with HSkMC and with HepG2 was “inactive” throughout. The growth inhibition call with S. aureus RN4220 was “inactive”.
Take `C[C@H](CO)N1C[C@H](C)[C@H](CN(C)S(=O)(=O)c2ccccc2)Oc2ncc(C#CC(C)(C)O)cc2C1=O`: the cytotoxicity call with HSkMC and with HepG2 was “inactive” each time. Besides, the growth inhibition call in the test with S. aureus RN4220 is “inactive”.
Consider `Cc1ccc(-c2ccc3c(c2)O[C@H](CN(C)Cc2cncnc2)[C@@H](C)CN([C@H](C)CO)S3(=O)=O)cc1`, for which the cytotoxicity call with HSkMC and in the test on HepG2 was “inactive” in each case. For the same compound, the growth inhibition call with S. aureus RN4220 was “inactive”.
Regarding `C#CCN(O[C@@H](/C=C/[C@@H](O)CCn1cc(-c2ccc(C(=O)NO)s2)nn1)C1CC1)[C@@H](Cc1ccccc1)C(=O)OC`, the cytotoxicity call in the test on HSkMC and in the test with HepG2 was “inactive” in each case. In the test with S. aureus RN4220, the growth inhibition call was “inactive”.
Consider `C[C@H](CO)N1C[C@H](C)[C@@H](CN(C)S(=O)(=O)c2cn(C)cn2)Oc2ccc(NC(=O)Nc3ccc(F)cc3)cc2CC1=O`, for which the cytotoxicity call with HSkMC and in the test with HepG2 was “inactive” in each case. Besides, in the test with S. aureus RN4220, the growth inhibition call was “inactive”.
As to `C[C@H](CO)N1C[C@H](C)[C@H](CN(C)C(=O)Nc2ccc3c(c2)OCO3)Oc2c(NC(=O)Nc3ccc(C(F)(F)F)cc3)cccc2C1=O`, the cytotoxicity call with HSkMC was “inactive”. Moreover, the cytotoxicity call in the test on HepG2 is “active”. For the same compound, in the test on S. aureus RN4220, the growth inhibition call was “active”.
Regarding `C[C@@H]1CN([C@H](C)CO)S(=O)(=O)c2ccc(C#CC3CCCC3)cc2O[C@@H]1CN(C)C(=O)Cc1ccncc1`, the cytotoxicity call in the test with HSkMC and in the test with HepG2 was “inactive” throughout. Also, the growth inhibition call in the test on S. aureus RN4220 is “inactive”.
In the case of `NC[C@H]1COC2(CCCCC2)O1`, the cytotoxicity call in the test on HSkMC and in the test on HepG2 was “inactive” throughout. Further, in the test with S. aureus RN4220, the growth inhibition call was “inactive”.
For `Cc1noc(C)c1NC(=O)N(C)C[C@H]1Oc2ccc(NS(=O)(=O)c3c(C)noc3C)cc2CC(=O)N([C@H](C)CO)C[C@@H]1C`, the cytotoxicity call with HSkMC and with HepG2 was “inactive” throughout. In addition, the growth inhibition call in the test on S. aureus RN4220 was “inactive”.
Consider `C[C@H]1CCCCO[C@@H](CN(C)C(=O)Nc2ccc3c(c2)OCO3)[C@@H](C)CN([C@@H](C)CO)C(=O)c2cc(NC(=O)c3ccccc3)ccc2O1`, for which the cytotoxicity call in the test with HSkMC and in the test on HepG2 was “inactive” throughout. For the same compound, in the test on S. aureus RN4220, the growth inhibition call is “inactive”.
Regarding `C[C@H]1CCCCO[C@@H](CN(C)Cc2ccncc2)[C@@H](C)CN([C@@H](C)CO)C(=O)c2cc(NC(=O)NC3CCCCC3)ccc2O1`, the cytotoxicity call in the test with HSkMC and in the test with HepG2 was “inactive” each time. Also, the growth inhibition call with S. aureus RN4220 was “inactive”.
In the case of `O=C(C[C@@H]1C[C@@H]2c3cc(NS(=O)(=O)c4ccccc4)ccc3O[C@@H]2[C@@H](CO)O1)NC1CCCCC1`, the cytotoxicity call in the test with HSkMC and in the test on HepG2 was “inactive” throughout. In addition, in the test with S. aureus RN4220, the growth inhibition call is “inactive”.
With `C[C@@H]1CCCCO[C@H](CN(C)CC2CCCCC2)[C@H](C)CN([C@H](C)CO)C(=O)c2cc(NC(=O)c3ccncc3)ccc2O1`, the cytotoxicity call in the test with HSkMC and in the test with HepG2 was “inactive” each time. Further, the growth inhibition call in the test with S. aureus RN4220 was “inactive”.
For `C[C@H](CO)N1C[C@H](C)[C@H](CN(C)S(=O)(=O)c2ccc(F)cc2)Oc2ccc(NS(=O)(=O)c3ccc(F)cc3)cc2CC1=O`, the cytotoxicity call in the test on HSkMC and with HepG2 was “inactive” throughout. In addition, the growth inhibition call with S. aureus RN4220 was “inactive”.
As for `COc1cc(Cl)ccc1Oc1ccc(Cl)cc1Cl`, the cytotoxicity call with HSkMC and in the test with HepG2 was “inactive” in each case. Also, the growth inhibition call in the test on S. aureus RN4220 is “inactive”.
In the case of `CC(C)(CO)NC(=S)NC[C@H]1CCCO1`, the cytotoxicity call with HSkMC and in the test on HepG2 was “inactive” in each case. Besides, the growth inhibition call in the test with S. aureus RN4220 was “inactive”.
Take `Cc1noc(C)c1NC(=O)N(C)C[C@@H]1Oc2ccc(NC(=O)Nc3ccc(C(F)(F)F)cc3)cc2CC(=O)N([C@@H](C)CO)C[C@H]1C`: the cytotoxicity call with HSkMC and in the test with HepG2 was “inactive” throughout. In addition, the growth inhibition call with S. aureus RN4220 was “inactive”.
As to `CN1C(=O)/C(=C\NCc2ccccc2)C(=O)c2c1n(C)c(=O)n(C)c2=O`, the cytotoxicity call in the test with HSkMC and in the test on HepG2 was “inactive” each time. Further, the growth inhibition call in the test on S. aureus RN4220 was “inactive”.
`N=C(N)NCCSC(=N)N`: the cytotoxicity call in the test on HSkMC and with HepG2 was “inactive” each time. In the test with S. aureus RN4220, the growth inhibition call is “inactive”.
As to `COc1ccc(C(=O)c2ccccc2O)c(O)c1`, the cytotoxicity call with HSkMC and in the test with HepG2 was “inactive” in each case. Moreover, the growth inhibition call with S. aureus RN4220 is “inactive”.
Regarding `COc1ccc(CN(C)C[C@@H]2OCCCC[C@H](C)Oc3ccc(NC(=O)c4ccncc4)cc3C(=O)N([C@H](C)CO)C[C@@H]2C)cc1`, the cytotoxicity call in the test with HSkMC and with HepG2 was “inactive” each time. Moreover, the growth inhibition call in the test with S. aureus RN4220 is “inactive”.
Turning to `C[C@@H]1CN([C@H](C)CO)C(=O)c2cccc(NC(=O)c3ccc(-c4nccs4)cc3)c2O[C@H]1CN(C)C(=O)Nc1ccccc1`, the cytotoxicity call in the test with HSkMC and in the test on HepG2 was “inactive” in each case. Besides, in the test on S. aureus RN4220, the growth inhibition call is “inactive”.
With `C[C@H](CO)N1C[C@H](C)[C@H](CN(C)S(C)(=O)=O)Oc2ccc(NC(=O)Nc3ccc(F)cc3)cc2CC1=O`, the cytotoxicity call in the test with HSkMC and in the test on HepG2 was “inactive” each time. For the same compound, in the test on S. aureus RN4220, the growth inhibition call is “inactive”.
As for `CN(C)CCCNC(=O)C[C@@H]1CC[C@@H]2[C@H](COC[C@H](O)CN2C(=O)Nc2cc(Cl)cc(Cl)c2)O1`, the cytotoxicity call with HSkMC and in the test with HepG2 was “inactive” throughout. The growth inhibition call in the test with S. aureus RN4220 is “inactive”.
With `C[C@@H]1CCCCO[C@@H](CN(C)CC2CCCCC2)[C@@H](C)CN([C@@H](C)CO)C(=O)c2cc(NC(=O)Nc3ccccc3)ccc2O1`, in the test with HSkMC, the cytotoxicity call was “inactive”. Besides, the cytotoxicity call in the test on HepG2 is “active”. For the same compound, the growth inhibition call in the test with S. aureus RN4220 is “inactive”.
With `C[C@H]1CN([C@@H](C)CO)C(=O)CCCn2nncc2CO[C@H]1CN(C)S(=O)(=O)c1ccc(Oc2ccccc2)nc1`, the cytotoxicity call with HSkMC and in the test with HepG2 was “inactive” in each case. Also, the growth inhibition call with S. aureus RN4220 is “inactive”.
As for `C[C@H]1CN([C@@H](C)CO)C(=O)c2cc(NC(=O)Cc3ccccc3)ccc2O[C@@H]1CN(C)Cc1ccc(C(F)(F)F)cc1`, the cytotoxicity call in the test on HSkMC and in the test on HepG2 was “inactive” throughout. The growth inhibition call in the test with S. aureus RN4220 is “inactive”.
Take `C[C@@H]1CCCCO[C@@H](CN(C)C(=O)c2ccncc2)[C@@H](C)CN([C@@H](C)CO)C(=O)c2cc(NC(=O)NC3CCCCC3)ccc2O1`: the cytotoxicity call in the test on HSkMC (human skeletal muscle cells) and with HepG2 was “inactive” in each case. Further, the growth inhibition call in the test on S. aureus RN4220 is “inactive”.
